± gives the standard deviation of the averaged measurements. Growth of baker's yeast expressing single-residue variants of Pneumocystis jirovecii dihydrofolate reductase in 8.8 or 44 µM methotrexate (about 75% and 90% inhibition of the wild type). Selection coefficient per generation; 0 = like wild type, above 0 = less sensitive, below 0 = more sensitive or loss of function. No active / inactive call per row; the paper calls resistant above 0.220 (8.8 µM) or 0.243 (44 µM) together with a significance test. At 44 µM about 15% of codons end with one read or none, so the lowest values are floors (replicate rank correlation 0.74; 0.94 at 8.8 µM).
B1: UniProt A0EPZ9; numbered along this chain (parent)
chain: MDWQKSLTLIVALTLSRGIGLKNDLPWKLKSDMMFFSRVTSGLLVTRSTGQMNVVLMGRKTWESLPAHSRPLKNRINVVISRQEVLDLGGGAYHARSLDDALALLSQIYDSTSKIQLNRVFVIGGGELCKAAMEHSRLNRIIATVIHNEVDCDVFFPIDFRSSQSCLPWRKQDHSVLEAWVGSKVPQGKINENGFIYEFEMWIRDI

Variants of: B1
Assay: selection coefficient against synonymous wild-type codons (log2 per generation); higher = faster growth than wild type
Details: with Saccharomyces cerevisiae carrying the variant on a plasmid
Procedure: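 Pooled growth of yeast carrying single-residue variants of P. jirovecii dihydrofolate reductase (own DFR1 gene intact), two passages at 30 °C, three cultures, sequenced before and after. Codons with under 15 starting reads are left out; codons of one change are averaged.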

Variant | selection coefficient against synonymous wild-type codons (log2) (methotrexate 8.8 µM) | selection coefficient against synonymous wild-type codons (log2) (methotrexate 44 µM)
R170M | -0.0325 ± 0.065 | -0.0898 ± 0.027
R170G | -0.0604 ± 0.054 | -0.0702 ± 0.1
R170W | -0.262 ± 0.086 | -0.309 ± 0.12
R170T | 0.00612 ± 0.04 | -0.0607 ± 0.096
R170P | -0.504 ± 0.15 | -0.235 ± 0.12
R170E | 0.0562 ± 0.043 | -0.0961 ± 0.071
R170S | 0.00931 ± 0.077 | -0.0277 ± 0.11
R170D | -0.0208 ± 0.076 | -0.0546 ± 0.06
R170I | -0.0249 ± 0.053 | -0.161 ± 0.28
R170K | 0.0894 ± 0.013 | 0.0127 ± 0.074
R170F | -0.13 ± 0.064 | -0.125 ± 0.16
R170N | -0.00974 ± 0.0091 | 0.00281 ± 0.012
R170A | 0.00134 ± 0.069 | -0.0736 ± 0.15
R170Q | 0.0127 ± 0.013 | -0.0509 ± 0.049
R170Y | -0.0732 ± 0.044 | -0.0659 ± 0.039
R170L | -0.0476 ± 0.035 | -0.157 ± 0.13
R170V | -0.0038 ± 0.029 | -0.106 ± 0.079
R170C | -0.0796 ± 0.036 | -0.0767 ± 0.18
R170H | -0.0186 ± 0.052 | -0.0684 ± 0.054
P168Q | -0.0785 ± 0.048 | -0.201 ± 0.13
P168T | -0.109 ± 0.061 | -0.217 ± 0.095
P168E | 0.0164 ± 0.0057 | -0.00934 ± 0.077
P168I | -0.359 ± 0.09 | -0.181 ± 0.054
P168N | -0.0753 ± 0.037 | -0.103 ± 0.082
P168C | -0.195 ± 0.08 | -0.102 ± 0.0047
P168F | -0.358 ± 0.079 | -0.291 ± 0.077
P168R | -0.128 ± 0.078 | -0.193 ± 0.15
P168G | -0.00434 ± 0.043 | 0.00312 ± 0.096
P168Y | -0.29 ± 0.12 | -0.145 ± 0.08

Reference: the supplement of paper PMC11125491
